Measurements taken from PubChem BioAssay AID1645887 (National Center for Advancing Translational Sciences (NCATS), 2021).
“And” between values parts separate entries of the source, which are not always exact repeats. Equal values may be shown once. Screen size: about 16,000 compounds; about 40 (0.2%) were called active. Another 1% or so got no clear call; they are omitted. Calls come from the whole dose curve; as a rule, active = well fitted activation curve with a large enough effect; inconclusive = small, poorly fitted or top-dose-only effect, or another doubt; inactive = no such curve, though single readings can be large or run the other way. The list shows a part of the results.

Biological target: Rap guanine nucleotide exchange factor 4 (Homo sapiens) (UniProt Q8WZA2)
Assay: Validation qHTS for agonist of cAMP-regulated guanine nucleotide exchange factor 4 (EPAC2);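 note: exchange makes BODIPY-GDP fluorescence drop when released from Rap1B; series mostly up to about 150 µM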
Details: EPAC2 Rap1B BODIPY-GDP exchange, fluorescence; activation: active compounds read high
Procedure, shortened: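 Signal normalized against 6.5 mM cAMP as agonist control. Mix of EPAC2 (100 nM), RAP1B-BODIPY-GDP (250 nM) and GDP (50 uM) was read kinetically at 480/540 nm, every 5 min over 30 min, after 5 min room-temperature incubation with compound.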
% is set by controls: 0 for no effect and ±100 for the full control effect.

Chain of UniProt Q8WZA2 (Q8WZA2 whole entry, looked up): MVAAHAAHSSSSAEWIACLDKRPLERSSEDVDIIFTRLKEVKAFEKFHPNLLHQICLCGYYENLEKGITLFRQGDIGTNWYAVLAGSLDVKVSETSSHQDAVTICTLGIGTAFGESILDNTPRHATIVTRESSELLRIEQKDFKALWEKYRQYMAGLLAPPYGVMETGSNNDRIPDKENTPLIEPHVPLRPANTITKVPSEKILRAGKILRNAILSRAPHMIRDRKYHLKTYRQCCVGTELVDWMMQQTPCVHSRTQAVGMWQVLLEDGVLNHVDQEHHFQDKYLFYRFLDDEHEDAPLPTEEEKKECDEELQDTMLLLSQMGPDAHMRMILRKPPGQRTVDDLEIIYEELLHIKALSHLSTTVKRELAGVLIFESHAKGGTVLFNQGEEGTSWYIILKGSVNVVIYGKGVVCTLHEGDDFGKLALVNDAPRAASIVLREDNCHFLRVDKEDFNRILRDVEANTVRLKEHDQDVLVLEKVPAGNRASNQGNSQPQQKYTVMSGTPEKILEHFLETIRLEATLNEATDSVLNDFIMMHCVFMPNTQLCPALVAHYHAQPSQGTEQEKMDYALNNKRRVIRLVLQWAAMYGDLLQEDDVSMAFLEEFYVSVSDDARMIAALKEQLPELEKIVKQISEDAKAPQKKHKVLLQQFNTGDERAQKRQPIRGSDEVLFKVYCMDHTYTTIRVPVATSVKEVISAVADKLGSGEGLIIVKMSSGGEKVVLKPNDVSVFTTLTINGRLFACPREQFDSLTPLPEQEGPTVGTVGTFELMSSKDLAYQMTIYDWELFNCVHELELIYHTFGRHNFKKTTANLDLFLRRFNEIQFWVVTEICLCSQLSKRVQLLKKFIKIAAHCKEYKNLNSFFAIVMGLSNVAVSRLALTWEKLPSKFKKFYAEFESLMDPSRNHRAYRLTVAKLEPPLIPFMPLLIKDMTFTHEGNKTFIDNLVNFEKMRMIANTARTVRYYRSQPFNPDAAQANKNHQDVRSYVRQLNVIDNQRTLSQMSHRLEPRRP

activation, inactive:
O=C(O)CCCC[C@@H]1CCSS1 -15.4%
COc1ccccc1CNc1ncnc2ccc(-c3ccccc3OC)cc12 -2.42%
CN1[C@H](CC(=O)c2ccccc2)CCC[C@H]1C[C@@H](O)c1ccccc1 -1.27%
Cc1[nH]c2ccccc2c1/C=C/c1nccc2ccccc12 -23.1%
COc1ccc(CN2C[C@H](Sc3nc4ccccc4[nH]3)C[C@H]2C(=O)N(C)C)c2ccccc12 -1.61%
C=C[C@@H]1c2cc(C)ccc2N(S(=O)(=O)c2ccc(C)cc2)[C@H](c2ccccc2)C1(C#N)S(=O)(=O)c1ccccc1 (stereo partly drawn) 0.0524%
CS(=O)(=O)N1CCC2(CC1)CN(Cc1ccccc1)C2 -11.1%
COc1ccc(C(=O)N2CCC[C@@]3(CCN(c4ncccn4)C3)C2)cc1 -15.1%
Cc1cccc(Nc2ccncc2S(=O)(=O)NC(=O)NC(C)C)c1 0.863% and -23.6%
O=c1c(CCc2ccccc2)nc2cnc(Nc3ccccc3)nc2n1Cc1cccs1 -3.04%
O=C(c1cc(C(F)(F)F)cc(C(F)(F)F)c1)N1CCC2(CCCN(c3ncccn3)C2)CC1 -15%
CO[C@H]1[C@H](NC(=O)c2ccco2)c2ccccc2C12CCN(Cc1ccc3cccc(F)c3n1)CC2 -23.4%
COc1ccc(Oc2ncc3nc(C)c(=O)n(Cc4ccc(F)cc4)c3n2)cc1 -43.6%
Cc1c(C(=O)N2CCCCC2)sc2ncnc(NCCc3ccccn3)c12 -1.64%
Cn1c(=O)c(-c2ccccc2)nc2cncnc21 -1.19%
Cc1c(C(=O)NCc2cccc(F)c2)sc2ncnc(NCC3CCCO3)c12 (stereo not drawn) -12.3%
CN(C)Cc1ccccc1-c1nc(NC2CC2)c2ccccc2n1 -1.93%
COc1ccccc1-c1cncnc1NCc1cccnc1 -13.9%
COC(=O)CC1C(C)(C)C(=O)C2CC3C4=CC(=O)OC(c5ccoc5)[C@]4(C)CCC3[C@@]1(C)C2=O (stereo partly drawn) -20.9%
CNc1nc(-c2ccc(N(C)C)cc2)nc2ccccc12 -5.46%
COc1ccc(CN2[C@@H](CC(C)=O)c3cc(C(F)(F)F)ccc3S2(=O)=O)cc1 -8.31%
C=C1C[C@@]23CC4C5[C@@]6(C)C[C@H](O)C[C@@]57C2[C@H](O)[C@@H]1[C@H](O)[C@H]3[C@H]7N4C6 -15.2%
CCCCCCCCCCCCN1C/C(=C\C(=O)OCC)c2ccccc2S1(=O)=O -26.3%
CC(=O)N1CCC2(CCCN(C(c3ccccc3)c3ccccc3)C2)CC1 -24.3%
O=C1Nc2ccc(I)cc2/C1=C/c1cc(Br)c(O)c(Br)c1 -14.3% and -22.2% and -47.2%
CC1(S(=O)(=O)O)CC(=O)c2ccccc2C1=O (stereo not drawn) 3.25%
COc1ncc2ncc(=O)n(C3CC3)c2n1 -9.5%
NCCNC(=O)Cc1ccc(NC(=O)Cc2ccc(Nc3ncnc4c3ncn4[C@@H]3O[C@H](CO)[C@@H](O)[C@H]3O)cc2)cc1 13%
C[C@]12CC[C@H]3[C@@H](CCC4=CC(=O)CC[C@@]43C)[C@@H]1CC[C@@H]2C(=O)CO 5.9%
O=C(O)CCCCC1SCC2NC(=O)NC21 (stereo not drawn) -13.9%
O=C1CSC2(CCN(CCCN3c4ccccc4Sc4ccc(Cl)cc43)CC2)N1 -24.2%
Cc1ccc2c(c1)C(=O)[C@@]1(O)CCN(c3ccccc3)C1=N2 -107%
C=N[C@@H](C(=O)N[C@@H]1C(=O)N2[C@@H]1SC(C)(C)[C@@H]2C(=O)O)c1ccccc1 -10.3%
CC[N+](CC)(CC(=O)Nc1c(C)cccc1C)Cc1ccccc1 4.86% and 4.25%
COc1cc(NS(=O)(=O)c2ccc(N)cc2)nc(OC)n1 -21.4% and -14.5%
O=C1CCC[C@@H]2C[C@@]3(C[C@@H]4CCN1[C@H]24)Nc1cc(Cl)c(Cl)cc1NC3=NCc1ccccc1 -4.22%
COc1cc2ccc(=O)oc2cc1O 13.8% and -3.8%
CC1(C)O[C@@H]2[C@@H](CO[C@@]3(COS(N)(=O)=O)OC(C)(C)O[C@@H]23)O1 -6.8%
O=c1c(-c2ccc(F)cc2)nc2cnc(N3CCNCC3)nc2n1-c1ccccc1 -13.7%
Cc1cccc(CNc2cc(-c3ccc(C(=O)N(C)C)cc3)ncn2)c1 -23.4%
O=C1N=C2SCCN2C(=O)C1Cc1ccc(Cl)cc1 (stereo not drawn) -4.71%
c1ccc(CN(CCN(Cc2ccccn2)Cc2ccccn2)Cc2ccccn2)nc1 11.4%
COC(=O)c1cc(CNC(=O)c2ccccc2F)cc(NC(=O)c2ccccc2OC)c1 -3.85%
CN(C)c1ncc2nc(-c3cccc(C#N)c3)c(=O)n(C[C@H]3CCCO3)c2n1 -0.949%
CNc1nc(-c2cccnc2)nc2ccccc12 9.28%
CNC(=O)[C@H]1O[C@@H](n2cnc3c(NCc4ccc(I)cc4)nc(Cl)nc32)[C@H](O)[C@@H]1O -60.1%
CCNc1ncc2nc(C)c(=O)n(CCc3ccccc3)c2n1 0.786%
N[C@H](Cn1ccc(=O)n(Cc2ccccc2C(=O)O)c1=O)C(=O)O -2.85%
CC(C)Cn1cnc2c(N)nc3ccccc3c21 -19.6%
O=C(NCCc1nnc2n1CCN(CC1CC=CCC1)CC2)c1ccc(F)cc1 (stereo not drawn) 4.76%
Clc1cccc(Nc2nnc(-c3ccccc3)c3ccccc23)c1 -5.54% and -2%
COc1ccc2c(c1)-c1nc(-n3ncc(C(=O)NCc4cccnc4)c3C3CC3)ncc1CC2 -8.29%
Cc1cc(C(=O)NCc2nnc3n2CCN(Cc2ccc(F)cc2F)CC3)c(C)o1 -0.459%
